PubChem BioAssay AID1457 (National Center for Advancing Translational Sciences (NCATS), 2008)
Where “and” joins values, the source holds several entries; their conditions need not be identical. Equal entries are not always repeated. Screen size: about 210,000 compounds; about 730 (0.35%) were called active. The inconclusive results got no clear call from the source; some entries with a clear call stand among them for comparison. Calls come from the whole dose curve; as a rule, active = well fitted inhibition curve with a large enough effect; inconclusive = small, poorly fitted or top-dose-only effect; inactive = no such curve, though single readings can be large or run the other way. Where the call is inconclusive, the potency comes from a doubtful curve fit.

Experiment: qHTS Assay for Identifying the Cell-Membrane Permeable IMPase Inhibitors: Potentiation with Lithium; note: nearly all actives have a fitted effect of over 50% in size
Settings: CHO-M1 cells, IP1 TR-FRET (IP-One), carbachol + lithium; series mostly up to 59.4 µM
How it was run: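 CHO cells stably expressing M1 receptor (2000/well, cultured 16–30 h) treated 30 min at 37C with compound plus low lithium. Cytosolic IP1 by TR-FRET (665/620 ratio and 620 channel) after 10 min lysis; AC50 by Hill fit.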
Potency is the fitted concentration of half-maximal effect.

Row | SMILES | Potency
1 | Cc1ccc2[nH]c(=O)c(CN(Cc3ccc4c(c3)OCO4)Cc3nnnn3C3CCCC3)cc2c1 | inactive
2 | CCNc1ncc2nc(-c3cc(F)cc(F)c3)c(=O)n(-c3ccccc3)c2n1 | inconclusive: 10 µM [inhibitor, partial curve]
3 | COc1ccc(-c2ccnc(SCC(=O)c3ccc(OC)c(OC)c3)n2)cc1 | inconclusive: 14.1 µM [inhibitor, single point]
4 | Cc1cc(C(=O)OCC(=O)c2ccc(Cl)c([N+](=O)[O-])c2)c2cccc(C)c2n1 | inactive
5 | CNC(=O)[C@@]1(C)C=C[C@@H](Cc2ccccc2)N1C(=O)OC | inactive
6 | C=CCn1c(-c2csc(-c3ccccc3)n2)n[nH]c1=S | inconclusive: 7.94 µM [inhibitor, partial curve]
7 | N#CC1=C(O)C(c2ccccc2)n2c1nc(=O)c1ccccc12 (configuration not stated) | inconclusive: 10 µM [inhibitor, partial curve]
8 | N#CC(C#N)=C/C(C#N)=C(/N)N1CCN(c2ccc(Cl)cc2)CC1 | inconclusive: 28.2 µM [inhibitor, single point]
9 | Cc1ccc(CN2C3=NCCCN3c3ccccc32)cc1 | inconclusive: 11.2 µM [inhibitor, single point]
10 | Cc1ccc(/C=C/C(=O)NCCc2c[nH]c3ccccc23)o1 | inactive
11 | CCOc1nc(-c2ccccc2)ccc1-c1noc(COc2ccccc2)n1 | inconclusive: 31.6 µM [inhibitor, single point]
12 | COc1cccc2cc(C(=O)C3=C(O)C(=O)N(CCN(C)C)C3c3ccc(F)cc3)oc12 (configuration not stated) | inconclusive: 14.1 µM [inhibitor, partial curve]
13 | Cc1sc(NC(=O)c2ccco2)c(CN2CCN(Cc3ccccc3)CC2)c1C | inactive
14 | Cc1cc(C)c2c(n1)sc1c(-c3ccccc3)c(C#N)c(N)nc12 | inconclusive: 22.4 µM [inhibitor, single point]
15 | CS(=O)(=O)c1ccc(Cl)c(NC(=O)CCl)c1 | inactive
16 | CCCc1nc(SCC(=O)Nc2ccc(S(=O)(=O)N(C)C)cc2)c2ccccc2n1 | inconclusive: 28.2 µM [inhibitor, single point]
17 | CCC(=O)Nc1cc2nn(-c3ccc(OC)cc3)nc2cc1C | active: 11.2 µM
18 | Cc1nc2ccc(S(=O)(=O)NCC(=O)Nc3cccc(F)c3)cc2s1 | inconclusive: 5.01 µM [inhibitor, single point]
19 | Cc1cccnc1-n1c(CCN2C(=O)c3ccccc3C2=O)nc2ccccc2c1=O | inactive
20 | O=C(O)CN1C(=O)C2C3CC(C2C1=O)C1C(c2ccccc2)c2sc(=O)[nH]c2SC31 (configuration not stated) | inactive
21 | C=CCn1c(-c2ccoc2)n[nH]c1=S | inconclusive: 22.4 µM [inhibitor, single point]
22 | NC(N)=Nc1nc2ccc(Cl)cc2c(=O)[nH]1 | inconclusive: 10 µM [inhibitor, single point]
23 | Cc1nonc1NC(=O)CSc1nc2c(C)cccc2cc1C#N | inconclusive: 22.4 µM [inhibitor, single point]
24 | O=C(O)c1cc(-c2ccc(Cl)s2)nc2ccccc12 | active: 11.2 µM

Row | SMILES | Potency
25 | Cc1ccc(C(=O)CC2(O)C(=O)N(C)c3ccccc32)o1 (configuration not stated) | inconclusive: 12.6 µM [inhibitor, single point]
26 | Cn1c(SCCOc2cccc(Cl)c2)nnc1-c1ccncc1 | inconclusive: 5.62 µM [inhibitor, full curve]
27 | Cn1c(-c2ccc(C=O)s2)nc2c3ccccc3c3ccccc3c21 | active: 12.6 µM
28 | Cc1ccccc1-c1nc(Nc2ccncc2)c2ccccc2n1 | inconclusive: 20 µM [inhibitor, single point]
29 | CC(C)(C)C1CCc2c(sc(NC(=O)CSc3nnc(-c4ccccc4)o3)c2C#N)C1 (configuration not stated) | inactive
30 | CCOc1cc2[nH]c(=S)n(CCC(=O)NCc3ccco3)c(=O)c2cc1OCC | inconclusive: 11.2 µM [inhibitor, single point]
31 | CCOC(=O)Cn1c(=NC(=O)c2cccs2)sc2cc(C(=O)OC)ccc21 | inconclusive: 2.24 µM [inhibitor, full curve]
32 | OCCN(CCO)c1nc(N2CCCCC2)c2nc(N(CCO)CCO)nc(N3CCCCC3)c2n1 | inconclusive: 11.2 µM [inhibitor, single point] and inconclusive: 28.2 µM [inhibitor, single point]
33 | Cc1cc(-c2cccc(Br)c2)c(C#N)c(N)n1 | inconclusive: 22.4 µM [inhibitor, single point]
34 | COC(=O)c1cc2c(-c3ccccc3)cc3ccccn3c-2c1C(=O)OC | inconclusive: 31.6 µM [inhibitor, single point]
35 | CCCCNC(=O)NS(=O)(=O)c1ccc(NS(=O)(=O)c2ccccc2)cc1 | inactive
36 | C=CCOC(=O)NC(CC(=Nc1ccc(OC)cc1)C(=O)OC)c1ccccc1 (configuration not stated) | inactive
37 | CS(=O)(=O)c1cc([N+](=O)[O-])c(Sc2nc3ccccc3[nH]2)c([N+](=O)[O-])c1 | inactive
38 | CCOC(=O)Cc1c(C)c2c(O)cc(O)cc2oc1=O | inconclusive: 10 µM [inhibitor, partial curve]
39 | Cc1cc(NC(=O)CSc2nc3c(c(-c4cccnc4)c2C#N)CCC3)no1 | inconclusive: 28.2 µM [inhibitor, single point]
40 | Fc1ccc(CSc2nc3ncc(Br)cc3[nH]2)cc1 | active: 14.1 µM
41 | CCN1C(=O)c2cccc3c(S(=O)(=O)Nc4c(C)n(C)n(-c5ccccc5)c4=O)ccc1c23 | inactive
42 | COc1ccc(C2C(C(C)=O)=C(O)C(=O)N2c2ccc(Br)cn2)cc1 (configuration not stated) | inconclusive: 11.2 µM [inhibitor, single point]
43 | c1ccc(Cc2nnc(Sc3ccccc3)c3ccccc23)cc1 | inconclusive: 15.8 µM [inhibitor, partial curve]
44 | CCCOc1ccc(/C(O)=C2/C(=O)C(=O)N(CCCn3ccnc3)C2c2cccs2)cc1 (configuration not stated) | inconclusive: 11.2 µM [inhibitor, partial curve]
45 | COc1ncc2nc(-c3cc(F)cc(F)c3)c(=O)n(C3CC3)c2n1 | inconclusive: 28.2 µM [inhibitor, single point]
46 | CCC(C)(C)n1nnnc1C(c1ccc2ncccc2c1)N1CCN(Cc2ccc3c(c2)OCO3)CC1 (configuration not stated) | inactive
47 | N#Cc1c(-c2cccs2)nc(SCC(=O)c2cccs2)[nH]c1=O | inconclusive: 25.1 µM [inhibitor, partial curve]
48 | O=C(Nc1ccccc1Cl)N1CCN(c2ccc3nnc(-c4ccccc4)n3n2)CC1 | inactive

Row | SMILES | Potency
49 | CC(=O)N1CCc2c(sc(NC(=O)c3ccc4c(c3)OCCO4)c2C#N)C1 | inconclusive: 22.4 µM [inhibitor, single point]
50 | O=C(COC(=O)C1CCCC1)NCc1ccc(Cl)cc1 | inconclusive: 5.62 µM [inhibitor, full curve, poor fit]
51 | Cc1ccccc1Cn1cc(NC(=O)c2cc3nc(-c4ccco4)cc(C(F)(F)F)n3n2)cn1 | inconclusive: 28.2 µM [inhibitor, single point]
52 | Cc1cc(C)c2nc(N3CCN(C)CC3)c(C#N)cc2c1 | active: 28.2 µM
53 | COc1ccc(C(=O)COC(=O)c2ccc(NC(=O)c3ccccc3)cc2)cc1 | active: 11.2 µM
54 | CCc1cccc2cc3c(N)c(C(=O)Nc4ccc(S(=O)(=O)N5CCCC5)cc4)sc3nc12 | inconclusive: 11.2 µM [inhibitor, partial curve]
55 | Cc1c(-c2ccc(F)cc2)nc(N)c(C#N)c1-c1cccs1 | inconclusive: 28.2 µM [inhibitor, single point]
56 | c1ccc(OCc2nnc3n2N=C(c2ccccc2)CS3)cc1 | inactive
57 | CC(/C=C/c1ccco1)=N\NC(=O)CNc1cccc(C)c1 | inconclusive: 5.01 µM [inhibitor, single point]
58 | CC(C)CC1C(C#N)=C(N)SC(N)=C1C#N | inconclusive: 10 µM [inhibitor, partial curve]
59 | CCOc1cc(/C=C2\SC(=N)N(c3nonc3N)C2=O)ccc1OCC(N)=O | inactive
60 | CSc1nc2sc3c(c2c2nncn12)CCC3 | inactive
61 | CCOc1ccc(/C(O)=C2/C(=O)C(=O)N(CC3CCCO3)C2c2cccs2)cc1 (configuration not stated) | inconclusive: 11.2 µM [inhibitor, single point]
62 | CNC(=O)c1ccc(-c2sc3nc(N4CCOCC4)c4c(c3c2N)CC(C)(C)OC4)o1 | inconclusive: 14.1 µM [inhibitor, single point]
63 | CC(C)CCNC(=O)NC(=O)COC(=O)C1CCN(S(=O)(=O)c2ccccc2F)CC1 | inactive
64 | O=C(CNS(=O)(=O)c1ccc2ccccc2c1)OCC(=O)c1ccc(Br)s1 | active: 1.78 µM
65 | O=C(Nc1cc(Cl)cc(Cl)c1)C(NCCO)c1ccccc1 (configuration not stated) | inactive
66 | COC(=O)c1ccc2c(=O)n(Cc3ccco3)c(SCC(=O)Nc3ccc(C)c(Cl)c3)nc2c1 | inconclusive: 28.2 µM [inhibitor, single point]
67 | CC1CCCC/C1=N\NC(=S)Nc1ccccc1 (configuration not stated) | inactive
68 | CCNc1ncc2nc(-c3ccc(OC)cc3)c(=O)n(CCc3ccccc3)c2n1 | active: 11.2 µM
69 | CCOCC(=O)Nc1nnc(C)s1 | inconclusive: 0.794 µM [inhibitor, full curve]
70 | O=C(NC(=S)Nc1cccc(NC(=S)NC(=O)c2ccco2)n1)c1ccco1 | inconclusive: 11.2 µM [inhibitor, single point]
71 | O=C1Nc2ccccc2N(O)N1c1ccc(Cl)c(Cl)c1 | inconclusive: 2.82 µM [inhibitor, single point]
72 | O=C(c1cc(-c2ccccn2)nc2ccc(Br)cc12)N1CCN(S(=O)(=O)c2ccccc2)CC1 | inconclusive: 11.2 µM [inhibitor, single point]
